Test results: the RNAGym collection of RNA variant scans (doi:10.1073/pnas.2313332121)
This sample is rich in variants without activity.

B1: TPR 5TU (parent)
chain: GGAUCUUCUCGAUCUAACAAAAAAGACAAAUCUGCCACAAAGCUUGAGAGCAUCUUCGGAUGCAGAGGCGGCAGCCUUCGGUGGCGCGAUAGCGCCAACGUUCUCAACUAUGACACGCAAAACGCGUGCUCCGUUGAAUGGAGUUUAUCAUG

Variants of: B1
Assay: polymerase ribozyme fitness, log enrichment relative to wild type (log ratio); higher = more active; in vitro selection for triplet polymerase activity
Outline: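 A single round of triplicate in vitro selection, including frozen incubation at −7 °C, was applied to PCR-built, transcribed mutant libraries of each subunit of a heterodimeric triplet polymerase ribozyme. Illumina sequencing of input and output libraries retained genotypes with ≥10 input reads and ≥1 read per output. Fitness is the base-2 logarithm of genotype enrichment divided by wild-type enrichment, from inverse-variance-weighted replicate averages.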

Row | Variant | polymerase ribozyme fitness (log ratio)
1 | GGAUCUUCUCGAUCUAACAAAAAAGACAAAUCUGCCACAAAGCUUGAGAGCAUCUUCGGAUGCAGAGGCGGCAGCCUUCGAUGGCACGAUAGCGCCAACGUUCUCAACUAUGACACGCAAAACGCGUGCUCCGUUGAAUGGAGUUUAACAUG | -3.94
2 | GGAUCUUCUCGAUCUAACAAAAAAGACAAAUCUGCCACAAAGCUUGAGAGCAUCUUCGGAUGCAGAGGCGGCAGCCUUCGAUGGCGCGAUAGCGCCAACGUUCUCAACUAUGACACGCAAAACGCGUGCUCCGUUGAAUCGAGUUUAUCAUG | -2.67
3 | GGAUCUUCUCGAUCUAACAAAAAAGACAAAUCUGCCACAAAGCUUGAGAGCAUCUUCGGAUGCAGAGGCGGCAGCCUUCGCUGGCGCGAUAGCGCCAACGUUCUCAGCUAUGAGACGCAAAACGCGUGCUCCGUUGAAUGGGGUUUAUCAUG | ≤ -4.2
4 | GGAUCUUCUCGAUCUAACAAAAAAGACAAAUCUGCCACAAAGCUUGAGAGCAUCUUCGGAUGCAGAGGCGGCAGCCUUCGCUGGCGAGAUAGCGCCAACGUUCUCAGUUCUGACACGCAAAACGCGUGCUCCGUUGAAUGGAGUUUAUCAUG | ≤ -4.2
5 | GGAUCUUCUCGAUCUAACAAAAAAGACAAAUCUGCCACAAAGCUUGAGAGCAUCUUCGGAUGCAGAGGCGGCAGCCUUCGCUGGCGCGAUAGAGCCAACGUUCUCAACUAUGACACGCAAAACGCGUGCUCCGUUGAAUGGAGUUUAACAUG | ≤ -4.2
6 | GGAUCUUCUCGAUCUAACAAAAAAGACAAAUCUGCCACAAAGCUUGAGAGCAUCUUCGGAUGCAGAGGCGGCAGCCUUCGCUGGCGCGAUAGCGACAACGUUCUCAACUAUGACACGCAAAACGCGUGCUCCGAUGAAUGGAGCUUAUCAUG | -2.86
7 | GGAUCUUCUCGAUCUAACAAAAAAGACAAAUCUGCCACAAAGCUUGAGAGCAUCUUCGGAUGCAGAGGCGGCAGCCUUCGCUGGCGCGAUAACGCCAACGUUCUCAACUAUGACAGGCAAAACACGUGCUCCUUUGAAUGGAGUUUAUUAUG | ≤ -4.2
8 | GGAUCUUCUCGAUCUAACAAAAAAGACAAAUCUGCCACAAAGCUUGAGAGCAUCUUCGGAUGCAGAGGCGGCAGCCUUCGCUGGCGCGAUAGCGCCAACGUUCUCAACUAUGACACACCAAACGCGUGCUCCGUUGAAUGGAGUUUAUCAUG | 0.184
9 | GGAUCUUCUCGAUCUAACAAAAAAGACAAAUCUGCCACAAAGCUUGAGAGCAUCUUCGGAUGCAGAGGCGGCAGCCUUCGCUGGCGCGAUAGCGCCAACGUUCUCAACUAUGACACGCAAAACGCCUGCUCCGUUGAAUGGAGUUUAUCAUG | 0.723
10 | GGAUCUUCUCGAUCUAACAAAAAAGACAAAUCUGCCACAAAGCUUGAGAGCAUCUUCGGAUGCAGAGGCGGCAGCCUUCGCUGGCGCGAUAGCGCCAACGUUCUCAACUAUGACACGCAAAACGCCUGCUCCGUUGAAUGGAGUCUAUCAUG | 0.873
11 | GGAUCUUCUCGAUCUAACAAAAAAGACAAAUCUGCCACAAAGCUUGAGAGCAUCUUCGGAUGCAGAGGCGGCAGCCUUCGCUGGCGCGAUAGCGCCAACGUUCUCAACUAUGACACGCAAAACGCGUGCUCCGUUGAAAGGAGUUUAUCAUG | ≤ -4.2
12 | GGAUCUUCUCGAUCUAACAAAAAAGACAAAUCUGCCACAAAGCUUGAGAGCAUCUUCGGAUGCAGAGGCGGCAGCCUUCGUUGGCGGGAUAGCGCCAACGUUCUCAACUAUGACACGCAAAACGCGUGCUCCGAUGAAUGGAGUUUAUCAUG | ≤ -4.2
13 | GGAUCUUCUCGAUCUAACAAAAAAGACAAAUCUGCCACAAAGCUUGAGAGCAUCUUCGGAUGCAGAGGCGGCAGCCUUCGUUGACGCGAUAGGGCCAACGUUCUCAACUAUGACACGCAAAACGCGUGCUCCGUUGAAUGGAGUUUAGCAUG | ≤ -4.2
14 | GGAUCUUCUCGAUCUAACAAAAAAGACAAAUCUGCCACAAAGCUUGAGAGCAUCUUCGGAUGCAGAGGCGGCAGCCUUCGUUGGCGCGAUAGCCCCAACGUUCUCAACUAUGACACGCAAAACGCGUGCUCCGUUGAAUGGAGAUUAUCAUG | -0.944
15 | GGAUCUUCUCGAUCUAACAAAAAAGACAAAUCUGCCACAAAGCUUGAGAGCAUCUUCGGAUGCAGAGGCGGCAGCCUUCGUGGGCGUGCUAGCGCCAACGUCCUCAACUAUGACACGUAAAACGCAUGCUCCGUUGAAUGGAAUUUAUCAGG | ≤ -4.2
16 | GGAUCUUCUCGAUCUAACAAAAAAGACAAAUCUGCCACAAAGCUUGAGAGCAUCUUCGGAUGCAGAGGCGGCAGCCUUCGGAGGCGCGAUCGCGCCAACGUUCUCAACUAUGACCCGCAAAACGCGUGCUCCGUUGAGUGGAGUUUAUCAUG | ≤ -4.2
17 | GGAUCUUCUCGAUCUAACAAAAAAGACAAAUCUGCCACAAAGCUUGAGAGCAUCUUCGGAUGCAGAGGCGGCAGCCUUCGGAGGCGCGAUAGCGCCAACGUUCUCGACUAUGACACGCAAAAGGCGUGCUCCGUUGAAUGGAGUUUAGCAUG | -4.03
18 | GGAUCUUCUCGAUCUAACAAAAAAGACAAAUCUGCCACAAAGCUUGAGAGCAUCUUCGGAUGCAGAGGCGGCAGCCUUCGGAGGCGCGAUAGCGCCAACGUUCUCAACUAUGACACGCACAACGCGUGCCCCGUUGAAUGGAUUUUAUCAUG | -2.44
19 | GGAUCUUCUCGAUCUAACAAAAAAGACAAAUCUGCCACAAAGCUUGAGAGCAUCUUCGGAUGCAGAGGCGGCAGCCUUCGGAGGUGCGAUAGCGCCAACGUUCUCAACUAUGACACGCAAAACGCGUGCUCCGUUGGAUGGAGCUUAUCACG | ≤ -4.2

Row | Variant | polymerase ribozyme fitness (log ratio)
20 | GGAUCUUCUCGAUCUAACAAAAAAGACAAAUCUGCCACAAAGCUUGAGAGCAUCUUCGGAUGCAGAGGCGGCAGCCUUCGGAGGCGCGAUAGGGCCAACGUUCUCAACUAUGACACGCAAAACGCGUGCUCCGUUGAAUGGAGUUUAUCAUG | -3.41
21 | GGAUCUUCUCGAUCUAACAAAAAAGACAAAUCUGCCACAAAGCUUGAGAGCAUCUUCGGAUGCAGAGGCGGCAGCCUUCGGAGGCGCGAUAGCGCCAACGUUAUCAACUAUGACACGCAAAACGCGUGCUCCGUUGAAUGCAGUUUAUCAUG | ≤ -4.2
22 | GGAUCUUCUCGAUCUAACAAAAAAGACAAAUCUGCCACAAAGCUUGAGAGCAUCUUCGGAUGCAGAGGCGGCAGCCUUCGGAGGCGCGAUAGCGCCAACGUUGUCAACUAUGUCACGCAAAACGCGUGCUCCGUUGCAUGGAGUUUAACAUG | ≤ -4.2
23 | GGAUCUUCUCGAUCUAACAAAAAAGACAAAUCUGCCACAAAGCUUGAGAGCAUCUUCGGAUGCAGAGGCGGCAGCCUUCGGAGGCGCGAUAGCGCCAACGUUCUCAACUAUGACACGCAAAACGAGUGCUCCGUUGAAUGGAGUUUAUCAUG | -0.504
24 | GGAUCUUCUCGAUCUAACAAAAAAGACAAAUCUGCCACAAAGCUUGAGAGCAUCUUCGGAUGCAGAGGCGGCAGCCUUCGGAGGCGCGAUAGCGCCAACGUUCUCAACUAUGACACGCAAAACGGGUGCUCCGUUGAAUGGAGUUUAUCAUG | -0.33
25 | GGAUCUUCUCGAUCUAACAAAAAAGACAAAUCUGCCACAAAGCUUGAGAGCAUCUUCGGAUGCAGAGGCGGCAGCCUUCGGAGGCGCGACUGCGCCAACGUUCUCAACUAUGACACGCAAAACGCUUGCUCCGUUGAAUCGAGUUUAUCAUG | ≤ -4.2
26 | GGAUCUUCUCGAUCUAACAAAAAAGACAAAUCUGCCACAAAGCUUGAGAGCAUCUUCGGAUGCAGAGGCGGCAGCCUUCGGAGGCGCGAUAGCGCCAACGCUCUCAACUAUGACACGCAAAACUCGUGCUCCGCUGCAUGGAGUUUAUCAUG | ≤ -4.2
27 | GGAUCUUCUCGAUCUAACAAAAAAGACAAAUCUGCCACAAAGCUUGAGAGCAUCUUCGGAUGCAGAGGCGGCAGCCUUCGGCGGCGCGAUAGCGCUAGCGUUCGCAACUAUGACAAGCAAAACGCGUGCUCCGAUGAAUGGAGUUUAUCAUG | ≤ -4.2
28 | GGAUCUUCUCGAUCUAACAAAAAAGACAAAUCUGCCACAAAGCUUGAGAGCAUCUUCGGAUGCAGAGGCGGCAGCCUUCGGCGGCCCGAUAGCGCCAACGUUCUCAACUAUGACACGCAAAACGCGUGCUCCGUUGAAUGGAGUUUAUCAUG | ≤ -4.2
29 | GGAUCUUCUCGAUCUAACAAAAAAGACAAAUCUGCCACAAAGCUUGAGAGCAUCUUCGGAUGCAGAGGCGGCAGCCUUCGGCGGCGCGAGAGCGCCAACGUUCUCAACUAUGACACGCAAAACGGGUGCUCCGUUGAAUGGAGUUUAUCAUG | ≤ -4.2
30 | GGAUCUUCUCGAUCUAACAAAAAAGACAAAUCUGCCACAAAGCUUGAGAGCAUCUUCGGAUGCAGAGGCGGCAGCCUUCGGGGGCGCGUUUGCGCCAUCCUUCUCAACUAUGACACGCAAAACGCGUGCUCCGUUGAAUGGAGUUUAUCAUG | ≤ -4.2
31 | GGAUCUUCUCGAUCUAACAAAAAAGACAAAUCUGCCACAAAGCUUGAGAGCAUCUUCGGAUGCAGAGGCGGCAGCCUUCGGGGGCGUGAUAUCGCCAGCGUUCUCAACUAUGACACGCAAAACGCGUGCUCCGUUGAAUGGAGUUUAUCAUG | -2.69
32 | GGAUCUUCUCGAUCUAACAAAAAAGACAAAUCUGCCACAAAGCUUGAGAGCAUCUUCGGAUGCAGAGGCGGCAGCCUUCGGGGGCGCGAUAGAGCCAACGUUCUCAACUAUGACACGCAAAACGCGUGCUCCGUUGAAUGGAGUUUAUCAUG | -2.46
33 | GGAUCUUCUCGAUCUAACAAAAAAGACAAAUCUGCCACAAAGCUUGAGAGCAUCUUCGGAUGCAGAGGCGGCAGCCUUCGGGGGCGCGAUAGAGCCAACGUUCUCAACUAUGACACGCAAAACGCGUGCUCCAAUGAAUGGAGUUUAUCAUG | ≤ -4.2
34 | GGAUCUUCUCGAUCUAACAAAAAAGACAAAUCUGCCACAAAGCUUGAGAGCAUCUUCGGAUGCAGAGGCGGCAGCCUUCGGGGGCGCGAUAGCGCUAACGUUCUCAACUAUGACACGCAAAACGCGUGCUCCGUUGCAUGGAGUUUAUCAUG | -3.87
35 | GGAUCUUCUCGAUCUAACAAAAAAGACAAAUCUGCCACAAAGCUUGAGAGCAUCUUCGGAUGCAGAGGCGGCAGCCUUCGGGGGCGCGAUAGCGCCAACGUUCUCAACUAUGACACGCAAAACGGGUGCUCCGUUGAAUGGAGUUUAUCAUG | -1.76
36 | GGAUCUUCUCGAUCUAACAAAAAAGACAAAUCUGCCACAAAGCUUGAGAGCAUCUUCGGAUGCAGAGGCGGCAGCCUUCGGGGACUCGAUAGCGCCAACGUUCUCAACUAUGACACGGAAAACGCGUGCUCCGUUGAAUGGAGUUUAUCAUG | ≤ -4.2
37 | GGAUCUUCUCGAUCUAACAAAAAAGACAAAUCUGCCACAAAGCUUGAGAGCAUCUUCGGAUGCAGAGGCGGCAGCCUUCGGGGACGCGAUAGCGCCAACGUUCUCAACUAUGACACGCAAAACGCGUGCUCCGUUGAAUGGAGUCUAUCAUG | -0.385
38 | GGAUCUUCUCGAUCUAACAAAAAAGACAAAUCUGCCACAAAGCUUGAGAGCAUCUUCGGAUGCAGAGGCGGCAGCCUUCGGGGGCACGAUAGCGCCAACGUUCUCAACUAUGACACGCAAAACGCGUGCUCCGUUGAAUGGAGUUUAUCAUG | -0.594
